Measurements published in paper PMC8771550.
Results are given in words; binding and its absence hold for the method and conditions named. In cells and extracts the contact can be indirect. Some results given as binding are weak or reduced against the parent protein; the word gives no strength.

Protein sequences, listed by entry. Tags and fused reporters are not part of them. Residues count along the entry.
UniProt P28741: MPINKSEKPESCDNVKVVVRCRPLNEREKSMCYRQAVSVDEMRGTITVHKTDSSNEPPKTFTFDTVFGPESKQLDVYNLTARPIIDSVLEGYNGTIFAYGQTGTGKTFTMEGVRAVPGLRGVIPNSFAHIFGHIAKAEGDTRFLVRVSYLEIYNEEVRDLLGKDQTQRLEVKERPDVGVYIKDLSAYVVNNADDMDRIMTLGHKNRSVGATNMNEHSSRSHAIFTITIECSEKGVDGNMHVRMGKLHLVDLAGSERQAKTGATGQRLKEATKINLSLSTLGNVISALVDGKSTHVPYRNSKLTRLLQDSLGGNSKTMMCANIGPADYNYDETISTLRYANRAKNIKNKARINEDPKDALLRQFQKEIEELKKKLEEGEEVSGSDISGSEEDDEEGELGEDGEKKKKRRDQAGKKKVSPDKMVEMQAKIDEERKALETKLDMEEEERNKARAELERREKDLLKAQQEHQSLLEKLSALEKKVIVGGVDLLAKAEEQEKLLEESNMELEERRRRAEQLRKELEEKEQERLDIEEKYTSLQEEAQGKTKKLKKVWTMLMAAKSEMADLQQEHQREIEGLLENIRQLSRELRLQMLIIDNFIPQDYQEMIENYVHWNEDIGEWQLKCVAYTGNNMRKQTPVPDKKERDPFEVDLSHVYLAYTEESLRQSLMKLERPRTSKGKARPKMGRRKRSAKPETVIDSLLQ
UniProt P56726, residues 33-793: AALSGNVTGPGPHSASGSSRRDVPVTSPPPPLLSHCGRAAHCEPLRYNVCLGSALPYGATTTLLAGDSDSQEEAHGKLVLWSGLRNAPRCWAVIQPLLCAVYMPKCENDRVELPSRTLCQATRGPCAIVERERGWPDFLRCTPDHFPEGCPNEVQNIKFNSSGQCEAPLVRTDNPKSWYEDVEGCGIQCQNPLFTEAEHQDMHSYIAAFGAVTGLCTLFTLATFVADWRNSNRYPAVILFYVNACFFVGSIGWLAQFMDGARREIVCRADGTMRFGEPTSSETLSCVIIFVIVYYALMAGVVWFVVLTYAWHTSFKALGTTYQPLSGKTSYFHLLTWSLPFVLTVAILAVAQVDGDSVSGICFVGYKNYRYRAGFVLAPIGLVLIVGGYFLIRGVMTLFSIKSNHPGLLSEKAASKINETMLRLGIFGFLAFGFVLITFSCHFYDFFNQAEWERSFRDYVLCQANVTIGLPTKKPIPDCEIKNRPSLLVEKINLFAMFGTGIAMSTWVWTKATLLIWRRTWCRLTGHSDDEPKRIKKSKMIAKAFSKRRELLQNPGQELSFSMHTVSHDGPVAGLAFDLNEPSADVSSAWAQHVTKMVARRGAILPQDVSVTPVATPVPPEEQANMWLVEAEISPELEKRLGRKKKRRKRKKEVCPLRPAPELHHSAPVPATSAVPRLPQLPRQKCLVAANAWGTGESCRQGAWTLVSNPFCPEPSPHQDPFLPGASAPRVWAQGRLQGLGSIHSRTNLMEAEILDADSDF

B1: IFT88, endogenous (protein, UniProt Q61371 1-824)
chain: MENVHLAPETDEDDLYSGFNDYNPAYDTEELENDTGFQQAVRTSHGRRPPVTAKIPSTAVSRPIATGYGSKTSLTSSMGRPMTGTIQDGVARPMTAVRAAGFSKAALRGSAFDPLGQSRGPAPPLEAKNEDSPEEKIRQLEKKVNELVEESCIANSCGDLKLALEKAKDAGRKERVLVRQREQVTSPENINLDLTYSVLFNLASQYSANEMYAEALNTYQVIVKNKMFSNAGRLKVNMGNIYLKQRNYSKAIKFYRMALDQIPSVHKEMRIKIMQNIGITFIKTGQYSDAINSFEHIMSMAPSLKAGFNLILSCFAIGDREKMKKAFQKLIAVPLEIDEDDKYISPSDDPHTNLLIEAIKNDHLRQMERERKAMAEKYIMTAAKLIAPVIEASFAVGYNWCVEVVKASQYVELANDLEINKAITYLRQKDFNQAVDTLKMFEKKDSRVKSAAATNLSFLYYLENEFAQASSYADLAVNSDRYNPSALTNKGNTVFANGDYEKAAEFYKEALRNDSSCTEALYNIGLTYKKLNRLDEALDSFLKLHAILRNSAQVLCQIANIYELMEDPNQAIEWLMQLISVVPTDSQALSKLGELYDSEGDKSQAFQYYYESYRYFPSNIEVIEWLGAYYIDTQFCEKAIQYFERASLIQPTQVKWQLMVASCFRRSGNYQKALDTYKEIHRKFPENVECLRFLVRLCTDIGLKEVQEYATKLKRLEKMKEMREQRIKSGRDSSGGSRSKREGSAGSDSGQNNSASSKSERLSAKLRALPGTDEPYESSGNKEIDASYVDPLGPQIERPKTAAKKRIDEDDFADEELGDDLLPE
B2: Vav2, endogenous (protein, UniProt Q60992 1-868)
chain: MEQWRQCGRWLIDCKVLPPNHRVVWPSAVVFDLAQALRDGVLLCQLLHNLSPGSIDLKDINFRPQMSQFLCLKNIRTFLKVCHDKFGLRNSELFDPFDLFDVRDFGKVISAVSRLSLHSIAQSKGIRPFPSEETAENDDDVYRSLEELADEHDLGEDIYDCVPCEDEGDDIYEDIIKVEVQQPMKMGMTEDDKRSCCLLEIQETEAKYYRTLEDIEKNYMGPLRLVLSPADMAAVFINLEDLIKVHHSFLRAIDVSMMAGGSTLAKVFLEFKERLLIYGEYCSHMEHAQSTLNQLLASREDFRQKVEECTLRVQDGKFKLQDLLVVPMQRVLKYHLLLKELLSHSADRPERQQLKEALEAMQDLAMYINEVKRDKETLKKISEFQCSIENLQVKLEEFGRPKIDGELKVRSIVNHTKQDRYLFLFDKVVIVCKRKGYSYELKEVIELLFHKMTDDPMHNKDIKKWSYGFYLIHLQGKQGFQFFCKTEDMKRKWMEQFEMAMSNIKPDKANANHHSFQMYTFDKTTNCKACKMFLRGTFYQGYLCTRCGVGAHKECLEVIPPCKMSSPADVDAPGAGPGPKMVAVQNYHGNPAPPGKPVLTFQTGDVIELLRGDPDSPWWEGRLVQTRKSGYFPSSSVKPCPVDGRPPTGRPPSREIDYTAYPWFAGNMERQQTDNLLKSHASGTYLIRERPAEAERFAISIKFNDEVKHIKVVEKDSWIHITEAKKFESLLELVEYYQCHSLKESFKQLDTTLKFPYKSRERTTSRASSRSPASCASYNFSFLSPQGLSFAPQAPSAPFWSVFTPRVIGTAVARYNFAARDMRELSLREGDVVKIYSRIGGDQGWWKGETNGRIGWFPSTYVEEEGVQ
B3: Y172-phospho-Vav2, endogenous (protein, UniProt Q60992 1-868)
chain: MEQWRQCGRWLIDCKVLPPNHRVVWPSAVVFDLAQALRDGVLLCQLLHNLSPGSIDLKDINFRPQMSQFLCLKNIRTFLKVCHDKFGLRNSELFDPFDLFDVRDFGKVISAVSRLSLHSIAQSKGIRPFPSEETAENDDDVYRSLEELADEHDLGEDIYDCVPCEDEGDDIYEDIIKVEVQQPMKMGMTEDDKRSCCLLEIQETEAKYYRTLEDIEKNYMGPLRLVLSPADMAAVFINLEDLIKVHHSFLRAIDVSMMAGGSTLAKVFLEFKERLLIYGEYCSHMEHAQSTLNQLLASREDFRQKVEECTLRVQDGKFKLQDLLVVPMQRVLKYHLLLKELLSHSADRPERQQLKEALEAMQDLAMYINEVKRDKETLKKISEFQCSIENLQVKLEEFGRPKIDGELKVRSIVNHTKQDRYLFLFDKVVIVCKRKGYSYELKEVIELLFHKMTDDPMHNKDIKKWSYGFYLIHLQGKQGFQFFCKTEDMKRKWMEQFEMAMSNIKPDKANANHHSFQMYTFDKTTNCKACKMFLRGTFYQGYLCTRCGVGAHKECLEVIPPCKMSSPADVDAPGAGPGPKMVAVQNYHGNPAPPGKPVLTFQTGDVIELLRGDPDSPWWEGRLVQTRKSGYFPSSSVKPCPVDGRPPTGRPPSREIDYTAYPWFAGNMERQQTDNLLKSHASGTYLIRERPAEAERFAISIKFNDEVKHIKVVEKDSWIHITEAKKFESLLELVEYYQCHSLKESFKQLDTTLKFPYKSRERTTSRASSRSPASCASYNFSFLSPQGLSFAPQAPSAPFWSVFTPRVIGTAVARYNFAARDMRELSLREGDVVKIYSRIGGDQGWWKGETNGRIGWFPSTYVEEEGVQ
modifications: phosphotyrosine at 172

How the values were obtained:
[1] = biological target: KIF3A, endogenous (mouse (endogenous in C3H10T1/2)) (UniProt P28741); assay: co-IP; endogenous proteins; anti-KIF3A immunoprecipitates from total C3H10T1/2 cell lysates, blotted for IFT88; cells with MG132 10 μM, with or without daRac1 or NSC23766 10 μg/ml 24 h; IgG as negative control
[2] = biological target: Smoothened (Smo), endogenous (mouse (endogenous in C3H10T1/2)) (UniProt P56726); assay: co-IP; endogenous proteins; anti-Vav2 or anti-Smo immunoprecipitates from total C3H10T1/2 cell lysates, blotted for Smo, Vav2 or phospho-Vav2; cells with or without N-Shh 100 ng/ml 24 h; IgG as negative control

Binder	binding [1]	binding [2]
B1	binds	
B2		binds
B3		binds
